Laboratory results taken from article PMC9911399, “Two distinct binding modes provide the RNA-binding protein RbFox with extraordinary sequence specificity”.
Numbering of substitutions follows the chain as printed; changes in the protein carry UniProt numbers. The list shows a part of the results.

T1: RBFOX1 RRM (Homo sapiens, UniProt Q9NWB1 109-208)
T1 sequence: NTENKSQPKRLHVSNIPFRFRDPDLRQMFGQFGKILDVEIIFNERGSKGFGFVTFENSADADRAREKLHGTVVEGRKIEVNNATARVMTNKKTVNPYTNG

B1: UCGACGU (DNA:RNA)
RNA: GGGAGACCGGAAUUCAGAUUGUCCUCGACGUUUAAAUCCCGUCGUAGCCACCA
DNA 1: CAATCTGAATTCCGGTCTCCC
DNA 2: TGGTGGCTACGACGGGATT
B2: UUACUAA (DNA:RNA)
RNA: B1 RNA with C26U, G27A, A28C, C29U, G30A, U31A
DNA 1: CAATCTGAATTCCGGTCTCCC
DNA 2: TGGTGGCTACGACGGGATT
B3: CGCAUCC (DNA:RNA)
RNA: B1 RNA with U25C, C26G, G27C, C29U, G30C, U31C
DNA 1: CAATCTGAATTCCGGTCTCCC
DNA 2: TGGTGGCTACGACGGGATT
B4: AAUCGGC (DNA:RNA)
RNA: B1 RNA with U25A, C26A, G27U, A28C, C29G, U31C
DNA 1: CAATCTGAATTCCGGTCTCCC
DNA 2: TGGTGGCTACGACGGGATT
B5: GUGACUG (DNA:RNA)
RNA: B1 RNA with U25G, C26U, G30U, U31G
DNA 1: CAATCTGAATTCCGGTCTCCC
DNA 2: TGGTGGCTACGACGGGATT
B6: GCAUUCG (DNA:RNA)
RNA: B1 RNA with U25G, G27A, A28U, C29U, G30C, U31G
DNA 1: CAATCTGAATTCCGGTCTCCC
DNA 2: TGGTGGCTACGACGGGATT
B7: GUACUGA (DNA:RNA)
RNA: B1 RNA with U25G, C26U, G27A, A28C, C29U, U31A
DNA 1: CAATCTGAATTCCGGTCTCCC
DNA 2: TGGTGGCTACGACGGGATT
B8: CCGGGUG (DNA:RNA)
RNA: B1 RNA with U25C, A28G, C29G, G30U, U31G
DNA 1: CAATCTGAATTCCGGTCTCCC
DNA 2: TGGTGGCTACGACGGGATT
B9: GUAUGUU (DNA:RNA)
RNA: B1 RNA with U25G, C26U, G27A, A28U, C29G, G30U
DNA 1: CAATCTGAATTCCGGTCTCCC
DNA 2: TGGTGGCTACGACGGGATT
B10: AAUAAAA (DNA:RNA)
RNA: B1 RNA with U25A, C26A, G27U, C29A, G30A, U31A
DNA 1: CAATCTGAATTCCGGTCTCCC
DNA 2: TGGTGGCTACGACGGGATT
B11: CAACUCA (DNA:RNA)
RNA: GGGAGACCGGAAUUCAGAUUGUCCCAACUCAUUAAAUCCCGUCGUAGCCACCA
DNA 1: CAATCTGAATTCCGGTCTCCC
DNA 2: TGGTGGCTACGACGGGATT
B12: UUUCAGC (DNA:RNA)
RNA: B1 RNA with C26U, G27U, A28C, C29A, U31C
DNA 1: CAATCTGAATTCCGGTCTCCC
DNA 2: TGGTGGCTACGACGGGATT
B13: AAAGAAG (DNA:RNA)
RNA: B11 RNA with C25A, C28G, U29A, C30A, A31G
DNA 1: CAATCTGAATTCCGGTCTCCC
DNA 2: TGGTGGCTACGACGGGATT
B14: GGUCGGU (DNA:RNA)
RNA: B1 RNA with U25G, C26G, G27U, A28C, C29G
DNA 1: CAATCTGAATTCCGGTCTCCC
DNA 2: TGGTGGCTACGACGGGATT
B15: UCUUCAG (DNA:RNA)
RNA: B1 RNA with G27U, A28U, G30A, U31G
DNA 1: CAATCTGAATTCCGGTCTCCC
DNA 2: TGGTGGCTACGACGGGATT
B16: GACUGAU (DNA:RNA)
RNA: B11 RNA with C25G, A27C, C28U, U29G, C30A, A31U
DNA 1: CAATCTGAATTCCGGTCTCCC
DNA 2: TGGTGGCTACGACGGGATT
B17: CAGUGAA (DNA:RNA)
RNA: B11 RNA with A27G, C28U, U29G, C30A
DNA 1: CAATCTGAATTCCGGTCTCCC
DNA 2: TGGTGGCTACGACGGGATT
B18: UGGCCGA (DNA:RNA)
RNA: B1 RNA with C26G, A28C, U31A
DNA 1: CAATCTGAATTCCGGTCTCCC
DNA 2: TGGTGGCTACGACGGGATT
B19: GUCCAUG (DNA:RNA)
RNA: B11 RNA with C25G, A26U, A27C, U29A, C30U, A31G
DNA 1: CAATCTGAATTCCGGTCTCCC
DNA 2: TGGTGGCTACGACGGGATT
B20: GGUACGA (DNA:RNA)
RNA: B1 RNA with U25G, C26G, G27U, U31A
DNA 1: CAATCTGAATTCCGGTCTCCC
DNA 2: TGGTGGCTACGACGGGATT
B21: GACUUGG (DNA:RNA)
RNA: B11 RNA with C25G, A27C, C28U, C30G, A31G
DNA 1: CAATCTGAATTCCGGTCTCCC
DNA 2: TGGTGGCTACGACGGGATT
B22: ACACGUU (DNA:RNA)
RNA: B11 RNA with C25A, A26C, U29G, C30U, A31U
DNA 1: CAATCTGAATTCCGGTCTCCC
DNA 2: TGGTGGCTACGACGGGATT
B23: UAUAUGC (DNA:RNA)
RNA: B1 RNA with C26A, G27U, C29U, U31C
DNA 1: CAATCTGAATTCCGGTCTCCC
DNA 2: TGGTGGCTACGACGGGATT
B24: CCUAGGC (DNA:RNA)
RNA: B1 RNA with U25C, G27U, C29G, U31C
DNA 1: CAATCTGAATTCCGGTCTCCC
DNA 2: TGGTGGCTACGACGGGATT
B25: CCGCGUU (DNA:RNA)
RNA: B1 RNA with U25C, A28C, C29G, G30U
DNA 1: CAATCTGAATTCCGGTCTCCC
DNA 2: TGGTGGCTACGACGGGATT
B26: CAAACUU (DNA:RNA)
RNA: B11 RNA with C28A, U29C, C30U, A31U
DNA 1: CAATCTGAATTCCGGTCTCCC
DNA 2: TGGTGGCTACGACGGGATT
B27: AGUUCAG (DNA:RNA)
RNA: B1 RNA with U25A, C26G, G27U, A28U, G30A, U31G
DNA 1: CAATCTGAATTCCGGTCTCCC
DNA 2: TGGTGGCTACGACGGGATT
B28: UAGCGCU (DNA:RNA)
RNA: B11 RNA with C25U, A27G, U29G, A31U
DNA 1: CAATCTGAATTCCGGTCTCCC
DNA 2: TGGTGGCTACGACGGGATT
B29: ACUUUAG (DNA:RNA)
RNA: B11 RNA with C25A, A26C, A27U, C28U, C30A, A31G
DNA 1: CAATCTGAATTCCGGTCTCCC
DNA 2: TGGTGGCTACGACGGGATT
B30: AGAUGCU (DNA:RNA)
RNA: B11 RNA with C25A, A26G, C28U, U29G, A31U
DNA 1: CAATCTGAATTCCGGTCTCCC
DNA 2: TGGTGGCTACGACGGGATT
B31: ACCACGA (DNA:RNA)
RNA: B1 RNA with U25A, G27C, U31A
DNA 1: CAATCTGAATTCCGGTCTCCC
DNA 2: TGGTGGCTACGACGGGATT

The binders below were run against T1, RBFOX1 RRM (assay: EMSA; HiTS-Eq, 1 nM pool, 10 min; buffer printed only for the single-RNA assays: 10 mM Tris pH 7.5, 150 mM NaCl, 3.4 mM EDTA, 0.001% NP-40, 30 C). Details: tags: His6 N-terminal (pET28a); label: 5' 32P.
In short: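 A pool of RNA with 7 randomized nucleotides, 5′-radiolabelled and with DNA-annealed flanks, was equilibrated at 1 nM for 10 min in 50 µL with purified RbFox RRM, wild type or mutant, across increasing protein concentrations. Free RNA was separated by 8% native PAGE, excised, reverse-transcribed, barcoded by PCR and sequenced. Relative association constants were obtained from read-count changes of each RNA species versus the control reaction and normalised to the cognate motif.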

Binder | binding signal
B1 | 0.0129 KA relative to UGCAUGU
B2 | 0.00327 KA relative to UGCAUGU
B3 | 0.0179 KA relative to UGCAUGU
B4 | 0.00741 KA relative to UGCAUGU
B5 | 0.0231 KA relative to UGCAUGU
B6 | 0.0118 KA relative to UGCAUGU
B7 | 0.022 KA relative to UGCAUGU
B8 | 0.0271 KA relative to UGCAUGU
B9 | 0.0125 KA relative to UGCAUGU
B10 | 0.00195 KA relative to UGCAUGU
B11 | 0.0014 KA relative to UGCAUGU
B12 | 0.0149 KA relative to UGCAUGU
B13 | 0.00539 KA relative to UGCAUGU
B14 | 0.00845 KA relative to UGCAUGU
B15 | 0.0121 KA relative to UGCAUGU
B16 | 0.0247 KA relative to UGCAUGU

Binder | binding signal
B17 | 0.00713 KA relative to UGCAUGU
B18 | 0.0244 KA relative to UGCAUGU
B19 | 0.00933 KA relative to UGCAUGU
B20 | 0.00547 KA relative to UGCAUGU
B21 | 0.0191 KA relative to UGCAUGU
B22 | 0.00226 KA relative to UGCAUGU
B23 | 0.0169 KA relative to UGCAUGU
B24 | 0.0108 KA relative to UGCAUGU
B25 | 0.008 KA relative to UGCAUGU
B26 | 0.00124 KA relative to UGCAUGU
B27 | 0.01 KA relative to UGCAUGU
B28 | 0.0105 KA relative to UGCAUGU
B29 | 0.00587 KA relative to UGCAUGU
B30 | 0.0117 KA relative to UGCAUGU
B31 | 0.000467 KA relative to UGCAUGU
